# Source: the supplement of paper PMC12217912
# Some of the results follow. The full chains were built here from the parent and the listed change. Values near 0.05 are background.
# B1: TEV protease; numbered along this chain (parent)
# chain: MGESLFKGPRDYNPISSSICHLTNESDGHTTSLYGIGFGPFIITNKHLFRRNNGTLVVQSLHGVFKVKDTTTLQQHLVDGRDMIIIRMPKDFPPFPQKLKFREPQREERICLVTTNFQTKSMSSMVSDTSCTFPSGDGIFWKHWIQTKDGQCGSPLVSTRDGFIVGIHSASNFTNTNNYFTSVPKNFMELLTNQEAQQWVSGWRLNADSVLWGGHKVFMVKPEEPFQPVKEATQL
# Variants of: B1
# Experiment: raw area under fraction-flipped curve 0-4 h after induction (AUC4h, not background-subtracted), DNA-recorder readout of cleavage of the substrate (dimensionless); higher = more cleavage of the substrate by the protease variant
# Details: temperature: 34 °C; time window: 0-4 h after rhamnose induction
# Method: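 In vivo DNA recorder in E. coli TOP10(DE3) ΔrhaA at 34 °C. Each TEVp single-site mutant (parent TEVp 0) is paired with a single-site variant of the 7-mer TEVs (canonical ENLYFQ|S). The substrate sits between flexible linkers in a Bxb1-sfGFP-TEVs-SsrA fusion, so cleavage stabilises Bxb1 and speeds flipping of a recombination array, read by NGS. The value is the raw area under the fraction-flipped curve over 0-4 h after rhamnose induction (AUC4h), with ≥20 reads per time point. It is not background-subtracted; inactive controls average about 0.047.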
# 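Also: Bxb1 expression induced with 0.2% (w/v) L-rhamnose at OD600 near 0.5, cultures sampled hourly, flipped fraction per protease–substrate barcode pair counted by paired-end Illumina sequencing.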
Variant,area with substrate ENLYEQS,area with substrate ENLYGQS,area with substrate ENLYIQS,area with substrate ENLYLQS,area with substrate ENLYVQS,area with substrate ENLYHQS,area with substrate ENLYKQS,area with substrate ENLYMQS,area with substrate ENLYNQS,area with substrate ENLYPQS
MGESLFKGPRDYNPISSSICHLTNESDGHTTSLYGIGFGPFIITNKHLFRRNNGTLVVQSLHGVFKVKDTTTLQQHLVDGRDMIIIRMPKDFPPFPQKLKFREPQREERICLVTTNFQTKSMSSMVSDTSCTFPSGDGIFWKHWIQTKDGQCGSPLVSTRDGFIVGIHSASNFTNTNNYFTSVPKNFMELLTNQEAQQWVSGWRLNADSVLWGGHKRFMVKPEEPFQPVKEATQL [V217R],0.0582,0.0464,0.0494,0.0492,0.0649,–,–,–,–,–
MGESLFKGPRDYNPISSSICHLTNESDGHTTSLYGIGFGPFIITNKHLFRRNNGTLVVQSLHGVFKVKDTTTLQQHLVDGRDMIIIRMPKDFPPFPQKLKFREPQREERICLVTTNFQTKSMSSMVSDTSCTFPSGDGIFWKHWIQTYDGQCGSPLVSTRDGFIVGIHSASNFTNTNNYFTSVPKNFMELLTNQEAQQWVSGWRLNADSVLWGGHKVFMVKPEEPFQPVKEATQL [K148Y],0.0559,0.0648,0.109,–,0.0529,0.0713,0.0702,0.0602,0.0709,0.0643
MGESLFKGPRDYNPISSSICHLTNESDGHTTSLYGIGFGPFIITNKHLFRRNNGTLVVQSLHGVFKVKDTTTLQQHLVDGRDMIIIRMPKDFPPFPQKLKFREPQREERICLVTTNFQTKSMSSMVSDTSCTFPSGDGIFWKHWIQTSDGQCGSPLVSTRDGFIVGIHSASNFTNTNNYFTSVPKNFMELLTNQEAQQWVSGWRLNADSVLWGGHKVFMVKPEEPFQPVKEATQL [K148S],0.0645,0.0651,0.131,–,0.0965,0.0608,–,–,–,0.0647
MGESLFKGPRDYNPISSSICHLTNESDGHTTSLYGIGFGPFIITNKHLFRRNNGTLVVQSLHGVFKVKDTTTLQQHLVDGRDMIIIRMPKDFPPFPQKLKFREPQREERICLVTTNFQTKSMSSMVSDTSCTFPSGDGIFWKHWIQTDDGQCGSPLVSTRDGFIVGIHSASNFTNTNNYFTSVPKNFMELLTNQEAQQWVSGWRLNADSVLWGGHKVFMVKPEEPFQPVKEATQL [K148D],0.0542,0.0661,0.0669,0.0691,0.0866,0.0542,0.0738,–,0.04,0.0678
MGESLFKGPRDYNPISSSICHLTNESDGHTTSLYGIGFGPFIITNKHLFRRNNGTLVVQSLHGVFKVKDTTTLQQHLVDGRDMIIIRMPKDFPPFPQKLKFREPQREERICLVTTNFQTKSMSSMVSDTSCTFPSGDGIFWKHWIQTKDGQCGSPLVSTRDGFIVGIHSASNFTNTNNYFTSVPKNFMELLTNQEAQQWVSGWRLNADSVLWQGHKVFMVKPEEPFQPVKEATQL [G213Q],0.076,–,–,–,–,–,–,0.0493,–,0.0611
MGESLFKGPRDYNPISSSICHLTNESDGHTTSLYGIGFGPFIITNKHLFRRNNGTLVVQSLHGVFKVKDTTTLQQHLVDGRDMIIIRMPKDFPPFPQKLKFREPQREERICLVTTNFQTKSMSSMVSDTSCTFPSGDGIFWKHWIQTKDGQCGSPLVSTRDGFIVGIHSASNFTNTNNYFTSVPKNFMELLTNQEAQQWVSGWRLNADSVLWNGHKVFMVKPEEPFQPVKEATQL [G213N],0.0751,–,–,–,–,0.0648,–,–,0.0606,–
MGESLFKGPRDYNPISSSICHLTNESDGHTTSLYGIGFGPFIITNKHLFRRNNGTLVVQSLHGVFKVKDTTTLQQHLVDGRDMIIIRMPKDFPPFPQKLKFREPQREERICLVTTNFQTKSMSSMVSDTSCTFPSGDGIFWKHWIQTKDGQCGSPLVSTRDGFIVGIHSASNFTNTNNYFTSVPKNFMELLTNQEAQQWVYGWRLNADSVLWGGHKVFMVKPEEPFQPVKEATQL [S201Y],0.0611,–,–,–,–,0.0654,–,–,–,0.0805
MGESLFKGPRDYNPISSSICHLTNESDGHTTSLYGIGFGPFIITNKHLFRRNNGTLVVQSLHGVFKVKDTTTLQQHLVDGRDMIIIRMPKDFPPFPQKLKFREPQREERICLVTTNFQTKSMSSMVSDTSCTFPSGDGIFWKHWIQTKDGQCWSPLVSTRDGFIVGIHSASNFTNTNNYFTSVPKNFMELLTNQEAQQWVSGWRLNADSVLWGGHKVFMVKPEEPFQPVKEATQL [G153W],0.0655,–,–,–,–,0.0484,–,–,0.039,–
MGESLFKGPRDYNPISSSICHLTNESDGHTTSLYGIGFGPFIITNKHLFRRNNGTLVVQSLHGVFKVKDTTTLQQHLVDGRDMIIIRMPKDFPPFPQKLKFREPQREERICLVTTNFQTKSMSSMVSDTSCTFPSGDGIFWKHWIQTKDGQCESPLVSTRDGFIVGIHSASNFTNTNNYFTSVPKNFMELLTNQEAQQWVSGWRLNADSVLWGGHKVFMVKPEEPFQPVKEATQL [G153E],0.0464,0.0573,0.0457,–,0.034,0.045,–,–,0.046,0.0512
MGESLFKGPRDYNPISSSICHLTNESDGHTTSLYGIGFGPFIITNKHLFRRNNGTLVVQSLHGVFKVKDTTTLQQHLVDGRDMIIIRMPKDFPPFPQKLKFREPQREERICLVTTNFQTKSMSSMVSDTSCTFPSGDGIFWKHWIQTKDGQCGSPLVSTRDGFIVGIHSASYFTNTNNYFTSVPKNFMELLTNQEAQQWVSGWRLNADSVLWGGHKVFMVKPEEPFQPVKEATQL [N172Y],0.0632,–,0.0428,–,–,0.0648,–,0.0573,–,–
MGESLFKGPRDYNPISSSICHLTNESDGHTTSLYGIGFGPFIITNKHLFRRNNGTLVVQSLHGVFKVKDTTTLQQHLVDGRDMIIIRMPKDFPPFPQKLKFREPQREERICLVTTNFQTKSMSSMVSDTSCTFPSGDGIFWKHWIQTKDGQCGSPLVSTRDGFIVGIHSASNFTNTNNYFTSVPKNFMELLTNQEAPQWVSGWRLNADSVLWGGHKVFMVKPEEPFQPVKEATQL [Q197P],0.0694,0.0591,–,0.091,0.105,0.0912,0.0513,–,–,–

# Same assay, conditions: temperature: 34 °C; time window: 0-4 h after rhamnose induction
Variant,area with substrate ENLYRQS,area with substrate ENLYTQS,area with substrate ENLYWQS,area with substrate ENLYYQS,area with substrate ENLYSQS,area with substrate ENLYQQS
MGESLFKGPRDYNPISSSICHLTNESDGHTTSLYGIGFGPFIITNKHLFRRNNGTLVVQSLHGVFKVKDTTTLQQHLVDGRDMIIIRMPKDFPPFPQKLKFREPQREERICLVTTNFQTKSMSSMVSDTSCTFPSGDGIFWKHWIQTYDGQCGSPLVSTRDGFIVGIHSASNFTNTNNYFTSVPKNFMELLTNQEAQQWVSGWRLNADSVLWGGHKVFMVKPEEPFQPVKEATQL [K148Y],0.0718,0.0712,0.0804,0.0604,–,–
MGESLFKGPRDYNPISSSICHLTNESDGHTTSLYGIGFGPFIITNKHLFRRNNGTLVVQSLHGVFKVKDTTTLQQHLVDGRDMIIIRMPKDFPPFPQKLKFREPQREERICLVTTNFQTKSMSSMVSDTSCTFPSGDGIFWKHWIQTSDGQCGSPLVSTRDGFIVGIHSASNFTNTNNYFTSVPKNFMELLTNQEAQQWVSGWRLNADSVLWGGHKVFMVKPEEPFQPVKEATQL [K148S],0.0652,–,–,0.0825,0.0839,–
MGESLFKGPRDYNPISSSICHLTNESDGHTTSLYGIGFGPFIITNKHLFRRNNGTLVVQSLHGVFKVKDTTTLQQHLVDGRDMIIIRMPKDFPPFPQKLKFREPQREERICLVTTNFQTKSMSSMVSDTSCTFPSGDGIFWKHWIQTDDGQCGSPLVSTRDGFIVGIHSASNFTNTNNYFTSVPKNFMELLTNQEAQQWVSGWRLNADSVLWGGHKVFMVKPEEPFQPVKEATQL [K148D],0.0581,–,–,–,–,0.0638
MGESLFKGPRDYNPISSSICHLTNESDGHTTSLYGIGFGPFIITNKHLFRRNNGTLVVQSLHGVFKVKDTTTLQQHLVDGRDMIIIRMPKDFPPFPQKLKFREPQREERICLVTTNFQTKSMSSMVSDTSCTFPSGDGIFWKHWIQTKDGQCGSPLVSTRDGFIVGIHSASNFTNTNNYFTSVPKNFMELLTNQEAQQWVSGWRLNADSVLWQGHKVFMVKPEEPFQPVKEATQL [G213Q],–,–,–,–,–,0.0677
MGESLFKGPRDYNPISSSICHLTNESDGHTTSLYGIGFGPFIITNKHLFRRNNGTLVVQSLHGVFKVKDTTTLQQHLVDGRDMIIIRMPKDFPPFPQKLKFREPQREERICLVTTNFQTKSMSSMVSDTSCTFPSGDGIFWKHWIQTKDGQCGSPLVSTRDGFIVGIHSASNFTNTNNYFTSVPKNFMELLTNQEAQQWVSGWRLNADSVLWNGHKVFMVKPEEPFQPVKEATQL [G213N],0.0564,–,–,–,–,0.0661
MGESLFKGPRDYNPISSSICHLTNESDGHTTSLYGIGFGPFIITNKHLFRRNNGTLVVQSLHGVFKVKDTTTLQQHLVDGRDMIIIRMPKDFPPFPQKLKFREPQREERICLVTTNFQTKSMSSMVSDTSCTFPSGDGIFWKHWIQTKDGQCGSPLVSTRDGFIVGIHSASNFTNTNNYFTSVPKNFMELLTNQEAQQWVYGWRLNADSVLWGGHKVFMVKPEEPFQPVKEATQL [S201Y],0.0624,–,0.0689,0.0623,–,0.0549
MGESLFKGPRDYNPISSSICHLTNESDGHTTSLYGIGFGPFIITNKHLFRRNNGTLVVQSLHGVFKVKDTTTLQQHLVDGRDMIIIRMPKDFPPFPQKLKFREPQREERICLVTTNFQTKSMSSMVSDTSCTFPSGDGIFWKHWIQTKDGQCWSPLVSTRDGFIVGIHSASNFTNTNNYFTSVPKNFMELLTNQEAQQWVSGWRLNADSVLWGGHKVFMVKPEEPFQPVKEATQL [G153W],–,–,0.0629,0.0645,0.0665,–
MGESLFKGPRDYNPISSSICHLTNESDGHTTSLYGIGFGPFIITNKHLFRRNNGTLVVQSLHGVFKVKDTTTLQQHLVDGRDMIIIRMPKDFPPFPQKLKFREPQREERICLVTTNFQTKSMSSMVSDTSCTFPSGDGIFWKHWIQTKDGQCESPLVSTRDGFIVGIHSASNFTNTNNYFTSVPKNFMELLTNQEAQQWVSGWRLNADSVLWGGHKVFMVKPEEPFQPVKEATQL [G153E],–,–,–,–,0.0582,–
MGESLFKGPRDYNPISSSICHLTNESDGHTTSLYGIGFGPFIITNKHLFRRNNGTLVVQSLHGVFKVKDTTTLQQHLVDGRDMIIIRMPKDFPPFPQKLKFREPQREERICLVTTNFQTKSMSSMVSDTSCTFPSGDGIFWKHWIQTKDGQCGSPLVSTRDGFIVGIHSASYFTNTNNYFTSVPKNFMELLTNQEAQQWVSGWRLNADSVLWGGHKVFMVKPEEPFQPVKEATQL [N172Y],–,–,0.0656,0.0684,–,–
MGESLFKGPRDYNPISSSICHLTNESDGHTTSLYGIGFGPFIITNKHLFRRNNGTLVVQSLHGVFKVKDTTTLQQHLVDGRDMIIIRMPKDFPPFPQKLKFREPQREERICLVTTNFQTKSMSSMVSDTSCTFPSGDGIFWKHWIQTKDGQCGSPLVSTRDGFIVGIHSASNFTNTNNYFTSVPKNFMELLTNQEAPQWVSGWRLNADSVLWGGHKVFMVKPEEPFQPVKEATQL [Q197P],–,–,0.0801,0.0892,–,0.0492
